The list shows a part of the results. Shown are side measurements of this screen, not its main read-out; they come without a call.
Assays:
Test in all cases: Primary Screen for Target Class Profiling of Small Molecule Inhibitors of Methyltransferases
[1] = molecular target: Glycine N-methyltransferase (Homo sapiens) (UniProt Q14749); conditions: purified enzyme, MTase-Glo SAH luminescence; measured here: GNMT inhibition; at 40 µM; stronger effect = lower value
Procedure, shortened: (§1)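 Each enzyme was assayed with SAM and its substrate. SAH formation detected by MTase-Glo luminescence; single-point 40 uM screen[…].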

[2] = molecular target: Guanidinoacetate N-methyltransferase (Homo sapiens) (UniProt Q14353); conditions: purified enzyme, MTase-Glo SAH luminescence; measured here: GAMT inhibition; at 40 µM; stronger effect = lower value
Procedure, shortened: as §1

[3] = molecular target: Histamine N-methyltransferase (Homo sapiens) (UniProt P50135); conditions: purified enzyme, MTase-Glo SAH luminescence; measured here: HNMT inhibition; at 40 µM; stronger effect = lower value
Procedure, shortened: as §1

[4] = molecular target: Nicotinamide N-methyltransferase (Homo sapiens) (UniProt P40261); conditions: purified enzyme, MTase-Glo SAH luminescence; measured here: NNMT inhibition; at 40 µM; stronger effect = lower value
Procedure, shortened: as §1

[5] = molecular target: Phenylethanolamine N-methyltransferase (Homo sapiens) (UniProt P11086); conditions: purified enzyme, MTase-Glo SAH luminescence; measured here: PNMT inhibition; at 40 µM; stronger effect = lower value
Procedure, shortened: as §1
% is set by controls: 0 for no effect and ±100 for the full control effect.

SMILES | activity change, negative = inhibition [1] | activity change, negative = inhibition [2] | activity change, negative = inhibition [3] | activity change, negative = inhibition [4] | activity change, negative = inhibition [5]
COC(=O)[C@H](c1ccccc1Cl)N1CCC2SC(=O)C=C2C1 (some centres not stated) | -10.3% | -2.68% | -12.5% | -21.6% | -12.8%
COC(=O)c1cc2n(n1)CC(C)(C(=O)NC1CCCCCC1)N(c1cccc(Cl)c1)C2=O (configuration not stated) | 3.56% | 0% | 5.92% | 1.2% | 3.69%
CC(C)CN1CCc2[nH]cnc2C12CCN(C(=O)c1n[nH]c3c1CCC3)CC2 | -5.07% | 1.31% | -24.4% | -16.1% | -12.1%
NCc1ccc(Oc2ccccc2)cc1 | – | 5.35% | – | -6.25% | 2.66%
Cc1cc2c(cc3n2CC(C)(C(=O)NC2CCCCC2)N(Cc2ccc(OC(C)C)cc2)C3=O)o1 (configuration not stated) | -7.05% | 4.3% | -6.32% | -6.28% | -6.65%
O=C(NOCC1CC1)c1ccc(F)c(F)c1Nc1ccc(I)cc1Cl | 0.952% | -6.38% | 7.83% | -29.9% | -1.67%
COc1ccc(-c2cc(N3CCCC(NC(=O)C4CCCC4)C3)n[nH]2)cc1 (configuration not stated) | -7.67% | -0.344% | -0.024% | -1.75% | -0.313%
O=C(Nc1ccccc1)N1CCC(Oc2ccccc2-c2nc(-c3ccccc3)no2)C1 (configuration not stated) | -5.66% | 0.093% | -5.09% | -2.76% | -3.97%
Cc1ccc(CNC(=O)Cn2nc3n(CCC(C)C)c(=O)c4ccccc4n3c2=O)cc1 | 0.893% | 0% | 11.2% | 7.46% | 5.63%
CC1(C)CCC(c2ccc(Cl)cc2)=C(CN2CCN(c3ccc(C(=O)NS(=O)(=O)c4ccc(N[C@H](CCN5CCOCC5)CSc5ccccc5)c(S(=O)(=O)C(F)(F)F)c4)cc3)CC2)C1 | -11% | -53.4% | -24.7% | -90.1% | -90.7%
O=C(COc1ccc(C(=O)c2ccccc2)cc1)NC1CCN(Cc2ccccc2)CC1 | 0.112% | 4.28% | -6.99% | -19.3% | -2.44%
COCC(=O)N1CCC(c2nn(-c3ccccn3)c(=O)[nH]2)CC1 | -5.09% | -16.1% | -4.33% | -16.4% | -8.56%
O=S(=O)(Cc1ccccc1)NC[C@H]1Cn2cc(-c3ccccc3)nc2CO1 | -4.35% | -3.31% | -2.67% | -5.13% | -1.72%
C=C[C@@]1(C)C=C2C(=O)C(O)=C3[C@](C)(C(=O)O)CC[C@@H]4C[C@]34[C@]2(O)C(=O)C1 | 0% | -12.7% | 0.786% | -21% | -1.91%
CCOC(=O)c1cc2n(n1)CC(C)(C(=O)NCc1ccc(C)cc1)N(CCc1cccs1)C2=O (configuration not stated) | 2.36% | 0% | 6.31% | 1.95% | 0.469%
COC(CCc1ccc(O)cc1)CC(=O)CCc1ccc(O)cc1 (configuration not stated) | 2.29% | 2.67% | 10.2% | -10.8% | -4.9%
COc1cc2c(NC3CCN(C)CC3)nc(N3CCCN(C)CC3)nc2cc1OCc1ccccc1 | -13.7% | – | -26.3% | -21.6% | 3.12%
CC(=O)OC[C@]12[C@H](OC(C)=O)[C@H](OC(=O)c3ccccc3)[C@@H]3[C@@H](OC(C)=O)[C@]1(OC3(C)C)[C@H](C)C[C@H](OC(C)=O)[C@@H]2OC(=O)c1ccccc1 | 0% | -0.999% | 2.29% | -14.6% | 2.65%

Reference: PubChem BioAssay AID1745853 (National Center for Advancing Translational Sciences (NCATS), 2022)
